Experimental findings from the supplement of paper PMC9446081 are described below.

Structures are written as SMILES. The whole screen tested about 39,000 compounds, of which about 220 (0.56%) showed activity. Some of the results follow.
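Further: static incubation at 37 °C against the wild-type strain, values averaged over two biological replicates.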

The experiment deals with Escherichia coli K-12 BW25113. Description: relative growth (OD600 normalised to plate interquartile mean) (fraction); higher = less growth inhibition, active = 0.2 or less. The conditions noted are these: 50 µM; LB; incubation time: overnight (16-24 h).
Consider `COc1ccccc1CNC(=O)C[C@@H]1C[C@@H]2c3cc(NC(=O)C4CCOCC4)ccc3O[C@@H]2[C@H](CO)O1`, for which the relative growth was inactive: 1.01.
With `C[C@@H]1CN([C@@H](C)CO)C(=O)c2c(c3ccccc3n2C)-c2ccccc2CO[C@@H]1CN(C)Cc1ccc(C(=O)O)cc1`, the relative growth was inactive: 1.02.
Then `O=C(NCCN1CCN(c2ccccc2F)CC1)[C@H]1CCCN(S(=O)(=O)c2c[nH]cn2)C1`, with inactive: 0.979; and `Cc1ccc(S(=O)(=O)N(C)C[C@H]2Oc3ccc(NS(C)(=O)=O)cc3CC(=O)N([C@H](C)CO)C[C@H]2C)cc1`, with inactive: 0.939; and `COc1ccc(NC(=O)N(C)C[C@@H]2OCCCC[C@H](C)Oc3ccc(NC(=O)c4ccccc4)cc3C(=O)N([C@@H](C)CO)C[C@@H]2C)cc1`, with inactive: 1.02.
As for `C[C@@H]1CCCCO[C@@H](CN(C)C(=O)Cc2ccccc2)[C@H](C)CN([C@@H](C)CO)C(=O)c2cc(NC(=O)Nc3ccc(F)cc3)ccc2O1`, the relative growth is inactive: 1.03.
With `O=C(C[C@@H]1CC[C@H]2[C@@H](COC[C@@H](O)CN2C(=O)Nc2ccc(Cl)cc2)O1)NC1Cc2ccccc2C1`, the relative growth was inactive: 0.952.
On to `COc1ccc(NC(=O)Nc2ccc3c(c2)C(=O)N([C@@H](C)CO)C[C@@H](C)[C@H](CN(C)C(=O)C2CCCCC2)OCCCC[C@H](C)O3)cc1`, for which the relative growth is inactive: 1.04.
Then `COc1cccc(C(=O)Nc2ccc3c(c2)C(=O)N(C)[C@@H]2CC[C@H](CC(=O)NCC4CC4)O[C@@H]2CO3)c1`, with inactive: 1.03; and `CCCNC(=O)C[C@H]1CC[C@@H]2[C@@H](COc3ccc(NS(=O)(=O)c4ccccc4C)cc3C(=O)N2C)O1`, with inactive: 0.989.
Turning to `COc1ccc(NC(=O)Nc2ccc3c(c2)C(=O)N([C@H](C)CO)C[C@@H](C)[C@H](CN(C)Cc2ccc(C(F)(F)F)cc2)OCCCC[C@H](C)O3)cc1`, the relative growth was inactive: 0.925.
For the molecule `COC(=O)C1=C(N)N(c2cccc(C(F)(F)F)c2)C2=C(C(=O)CC(C)(C)C2)[C@@H]1c1ccc(OC)cc1`, the relative growth is inactive: 1.06.
Take `C[C@@H]1CCCCO[C@@H](CN(C)C(=O)NC2CCCCC2)[C@@H](C)CN([C@@H](C)CO)C(=O)c2cc(NC(=O)Nc3ccccc3)ccc2O1`: the relative growth is inactive: 0.985.
As for `Cc1noc(C)c1NC(=O)Nc1ccc2c(c1)C(=O)N([C@H](C)CO)C[C@H](C)[C@H](CN(C)C(=O)NC1CCCCC1)OCCCC[C@H](C)O2`, the relative growth is inactive: 0.995.
Take `C[C@H](CO)N1C[C@H](C)[C@H](CN(C)C(=O)Nc2cccc3ccccc23)Oc2ncc(-c3cccc(F)c3)cc2C1=O`: the relative growth was inactive: 1.01.
For the molecule `O=C(O)c1cc2ncc(CCO)cn2n1`, the relative growth is inactive: 1.03.
Consider `Cc1cc(C(=O)Nc2cccc3c2O[C@H](CN(C)S(=O)(=O)c2cn(C)cn2)[C@@H](C)CN([C@@H](C)CO)C3=O)n(C)n1`, for which the relative growth was inactive: 0.961.
In the case of `COc1ccc(NC(=O)N(C)C[C@@H]2OCCCC[C@H](C)Oc3ccc(NC(=O)Nc4ccc5c(c4)OCO5)cc3C(=O)N([C@H](C)CO)C[C@@H]2C)cc1`, the relative growth was inactive: 1.07.
Then `Cc1ccccc1-c1ccc(N)cc1`, with inactive: 0.974; and `C[C@H](CO)N1C[C@H](C)[C@H](CN(C)Cc2ccc(-c3ccccc3)cc2)Oc2ccc(NC(=O)Nc3ccc(C(F)(F)F)cc3)cc2CC1=O`, with inactive: 1.02.
Next, `C[C@H](CO)N1C[C@H](C)[C@@H](CN(C)S(=O)(=O)c2ccccc2)Oc2ccc(NS(=O)(=O)c3ccccc3)cc2C1=O`: inactive: 1.01; `C[C@@H]1CN([C@H](C)CO)C(=O)c2cc(C#Cc3ccccc3F)cnc2O[C@H]1CN(C)C(=O)C1CCOCC1`: inactive: 1.02; `Cc1noc(C)c1NC(=O)N(C)C[C@@H]1OCCCC[C@H](C)Oc2ccc(NC(=O)Nc3cccc4ccccc34)cc2C(=O)N([C@@H](C)CO)C[C@H]1C`: inactive: 1.01.
Then `Cc1ccc(S(=O)(=O)N2C[C@H](O)COC[C@H]3O[C@H](CC(=O)NCCN4CCCCC4)CC[C@@H]32)cc1`, with inactive: 1.01; and `C[C@@H]1CN([C@H](C)CO)C(=O)Cc2cc(NC(=O)CCCN(C)C)ccc2O[C@@H]1CN(C)S(=O)(=O)c1ccc(Cl)cc1`, with inactive: 0.973.
Regarding `COc1ccc(NC(=O)Nc2ccc3c(c2)C(=O)N([C@@H](C)CO)C[C@H](C)[C@@H](CN(C)Cc2ccc(Cl)c(Cl)c2)OCCCC[C@H](C)O3)cc1`, the relative growth is inactive: 0.984.
Next, `CCCNC(=O)N(C)C[C@@H]1Oc2cc(-c3ccccc3F)ccc2S(=O)(=O)N([C@H](C)CO)C[C@@H]1C`: inactive: 0.988; `Cc1c[nH]cnc1=O`: inactive: 1.01.
As for `CN1C=C(C(=O)OCCS(C)(=O)=O)C(C(=O)OCCS(C)(=O)=O)=CC(CCCO)=C[C@@H]1C1CC1`, the relative growth is inactive: 1.04.
In the case of `Cc1ccc(S(=O)(=O)Nc2cccc3c2O[C@H](CN(C)S(=O)(=O)c2ccc(F)cc2)[C@@H](C)CN([C@@H](C)CO)C3=O)cc1`, the relative growth was inactive: 1.
Take `COC(=O)c1ccc(Cn2cc(C(=O)NO)nn2)o1`: the relative growth is inactive: 0.974.
For the molecule `Cc1ccc(S(=O)(=O)Nc2cccc3c2O[C@@H](CN(C)S(=O)(=O)c2cn(C)cn2)[C@@H](C)CN([C@@H](C)CO)C3=O)cc1`, the relative growth is inactive: 1.06.
Take `CC(C)(Oc1ccc(Cl)cc1)C(=O)O`: the relative growth is inactive: 0.993.
In the case of `Nc1nc(C(F)(F)F)ncc1C(=O)O`, the relative growth was inactive: 1.04.
Take `COc1ccc(NC(=O)N(C)C[C@@H]2OCCCC[C@@H](C)Oc3ccc(NS(=O)(=O)c4ccc(Cl)cc4)cc3C(=O)N([C@@H](C)CO)C[C@@H]2C)cc1`: the relative growth is inactive: 0.993.
Then `COc1ccc(S(=O)(=O)N(C)C[C@@H]2Oc3c(NS(=O)(=O)c4ccccc4)cccc3C(=O)N([C@H](C)CO)C[C@@H]2C)cc1`, with inactive: 1.01; and `C[C@H](CO)N1C[C@H](C)[C@H](CN(C)Cc2ccc(-c3ccccc3)cc2)Oc2ccc(NS(=O)(=O)c3ccc(F)cc3)cc2CC1=O`, with inactive: 1.01.
Next, `O=C1NCCc2cncn21`: inactive: 1.03; `COCC(=O)N1C[C@@H](C)[C@H](OC)CN(C)C(=O)c2cc(NC(=O)Nc3cccc(F)c3)ccc2OC[C@H]1C`: inactive: 1.01.
With `O=C(O)C[C@@H](O)C(=O)O`, the relative growth was inactive: 1.03.
Regarding `C[C@@H]1CN([C@@H](C)CO)C(=O)Cc2cc(NC(=O)Cn3cnnn3)ccc2O[C@H]1CN(C)C(=O)Nc1cccc2ccccc12`, the relative growth is inactive: 0.993.
For the molecule `Nc1nc(F)nc2c1ncn2[C@@H]1O[C@H](COP(=O)(O)O)[C@@H](O)[C@@H]1O`, the relative growth is inactive: 0.329.
For `COc1ccc(S(=O)(=O)Nc2ccc3c(c2)C(=O)N([C@H](C)CO)C[C@@H](C)[C@@H](CN(C)Cc2ccncc2)O3)cc1`, the relative growth was inactive: 1.
Consider `O=C(C[C@H]1CC[C@H]2[C@@H](COC[C@H](O)CN2C(=O)c2ccccc2)O1)N1CCOCC1`, for which the relative growth is inactive: 1.05.
In the case of `Cc1ccc2sc(N(CCCN(C)C)C(=O)c3ccc(S(=O)(=O)N(C)C4CCCCC4)cc3)nc2c1C`, the relative growth is inactive: 1.1.
Then `C[C@H](CO)N1C[C@H](C)[C@@H](CN(C)Cc2ccc(Cl)c(Cl)c2)Oc2ccc(NC(=O)Cn3cnnn3)cc2C1=O`, with inactive: 1; and `C[C@@H]1CN([C@@H](C)CO)C(=O)c2cccc(NC(=O)Nc3ccccc3)c2O[C@H]1CN(C)Cc1ccc(C(F)(F)F)cc1`, with inactive: 0.822; and `CN1CCN(CC#N)C(=O)C12CCN(C(=O)c1cnccn1)CC2`, with inactive: 1.02.
Take `O=C(NCCCN1CCOCC1)[C@H]1[C@H](CO)[C@H]2Cn3c(cccc3=O)[C@@H]1N2C(=O)C1CCCCC1`: the relative growth was inactive: 0.97.
As for `C[C@H](CO)N1C[C@H](C)[C@H](CN(C)Cc2ccc3c(c2)OCO3)Oc2c(NC(=O)C3CCOCC3)cccc2C1=O`, the relative growth is inactive: 0.997.
Then `C[C@H](CO)N1C[C@H](C)[C@@H](CN(C)Cc2ccc(-c3ccccc3)cc2)Oc2ccc(NC(=O)Nc3ccc4c(c3)OCO4)cc2CC1=O`, with inactive: 0.999; and `C[C@H](CO)N1C[C@H](C)[C@H](CN(C)Cc2cncnc2)Oc2cc(-c3ccccc3F)ccc2S1(=O)=O`, with inactive: 0.975.
In the case of `CC(C)NC(=O)N(C)C[C@@H]1OCc2cn(nn2)CCCC(=O)N([C@H](C)CO)C[C@@H]1C`, the relative growth was inactive: 1.01.
With `CC(N)(Cc1ccc(O)c(O)c1)C(=O)O` (stereo not drawn), the relative growth is inactive: 1.11.
In the case of `Cn1c(CC#N)n[nH]c1=S`, the relative growth is inactive: 1.01.
Next, `Cc1ccc(S(=O)(=O)N(C)C[C@H]2Oc3ccc(NS(=O)(=O)c4ccccc4)cc3C(=O)N([C@H](C)CO)C[C@H]2C)cc1`: inactive: 1.01; `C=CCOC(=O)[C@@H]1[C@H]2C(=O)O[C@H](c3ccccc3)[C@H](c3ccccc3)N2[C@H](c2ccc(OCCOC(=O)[C@H]3C[C@H]4C(=O)NCC(=O)N4[C@H]3c3ccc(O)cc3)cc2)[C@@]12C(=O)Nc1ccc(I)cc12`: inactive: 1.08; `CC(=O)NO`: inactive: 1.09.
As to `C[C@H](CO)N1C[C@H](C)[C@@H](CN(C)S(=O)(=O)c2cn(C)cn2)Oc2c(NC(=O)CCCN(C)C)cccc2C1=O`, the relative growth is inactive: 0.974.
Turning to `C[C@@H]1CN([C@@H](C)CO)C(=O)Cc2cc(NC(=O)C3CC3)ccc2O[C@@H]1CN(C)C(=O)Nc1ccc2c(c1)OCO2`, the relative growth was inactive: 1.
For `C[C@H](CO)N1C[C@H](C)[C@H](CN(C)C(=O)CN(C)C)Oc2cc(C#Cc3cccnc3)ccc2S1(=O)=O`, the relative growth was inactive: 0.965.
As for `C[C@H]1CN([C@@H](C)CO)S(=O)(=O)c2ccc(C#CC(C)(C)O)cc2O[C@@H]1CN(C)Cc1ccc(F)cc1`, the relative growth was inactive: 1.01.
As for `C[C@H]1CCCCO[C@@H](CN(C)C(=O)NC2CCCCC2)[C@@H](C)CN([C@@H](C)CO)C(=O)c2cc(NS(=O)(=O)c3ccccc3)ccc2O1`, the relative growth was inactive: 1.
